The whole screen tested about 110,000 compounds, of which about 230 (0.21%) showed an effect of 50% or more. The list shows a part of the results.

The results in this text go back to paper PMC6919601, “Identification of Plasmodium dipeptidyl aminopeptidase allosteric inhibitors by high throughput screening” (PLoS ONE, 2019).
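Note: 30 min substrate incubation versus DMSO and 10 µM JCP410 controls.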

DPAP1, sequence (Q8IIJ9 whole entry, looked up): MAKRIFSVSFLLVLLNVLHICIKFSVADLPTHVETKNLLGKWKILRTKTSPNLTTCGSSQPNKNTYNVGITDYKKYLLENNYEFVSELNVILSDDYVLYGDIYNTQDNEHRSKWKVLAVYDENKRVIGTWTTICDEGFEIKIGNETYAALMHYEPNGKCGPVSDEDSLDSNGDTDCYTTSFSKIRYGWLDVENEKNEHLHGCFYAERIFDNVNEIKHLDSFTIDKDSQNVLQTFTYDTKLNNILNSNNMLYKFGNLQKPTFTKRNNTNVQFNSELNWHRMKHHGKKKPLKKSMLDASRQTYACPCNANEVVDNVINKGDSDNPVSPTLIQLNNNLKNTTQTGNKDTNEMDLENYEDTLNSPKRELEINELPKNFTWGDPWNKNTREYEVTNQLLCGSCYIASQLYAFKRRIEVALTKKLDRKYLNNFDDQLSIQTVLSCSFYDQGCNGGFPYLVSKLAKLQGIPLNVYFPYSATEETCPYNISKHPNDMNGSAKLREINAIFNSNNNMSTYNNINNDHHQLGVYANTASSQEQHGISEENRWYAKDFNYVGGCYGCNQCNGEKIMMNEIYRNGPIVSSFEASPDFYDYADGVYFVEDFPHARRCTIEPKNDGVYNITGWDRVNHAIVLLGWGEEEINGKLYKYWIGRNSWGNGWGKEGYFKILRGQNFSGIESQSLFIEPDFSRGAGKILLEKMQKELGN

The experiment addresses DPAP1 (Plasmodium falciparum, UniProt Q8IIJ9). Briefly: primary screen, percent inhibition; read by cleavage of a fluorogenic dipeptide substrate; higher = more effect of the substance. Details: species or system P. falciparum D10 trophozoite lysates; single well.
Turning to `CC(C)c1ncc(C(O)c2cccc3ccccc23)n1C` (stereo not shown), the “% Inhibition @ 10 uM” value is given as -0.67%.
For the molecule `CN(c1nnc(NC(=O)NC2CCCC2)s1)C1CCCCC1`, the “% Inhibition @ 10 uM” value is given as -8.54%.
Consider `Cc1cccc(Sc2ccncc2S(=O)(=O)NC(=O)c2ccc(Cl)cc2)c1`, for which the “% Inhibition @ 10 uM” value is reported as -10.2%.
Regarding `CCCN(CCC)C(=O)c1cnn(-c2ccccc2Cl)c1NC(C)=O`, the “% Inhibition @ 10 uM” value is -1.17%.
Next, `CCOc1cc(CCn2cnc3c4cc(F)ccc4nc-3c2O)ccc1OC`: 3.24%.
The figure for `COc1ccc(CCNc2nc3ccc(C(=O)c4ccccc4)cc3n3cnnc23)cc1OC` is -4.66%; for `Cc1ccc(OCC(=O)Nc2nn3c(C)nnc3s2)cc1C` it is -4.69%.
The figure for `CC(C)(C)NS(=O)(=O)c1ccc(Cc2ccc(S(=O)(=O)NC(C)(C)C)cc2)cc1` is 8.06%.
As to `COc1ccccc1-c1cc2nc(C)c(CCC(=O)NC(C)c3cccs3)c(C)n2n1` (stereo not shown), the “% Inhibition @ 10 uM” value was 4.34%.
The figure for `O=C1c2ccccc2-c2nc3ccc([N+](=O)[O-])cc3nc21` is -2.78%; for `Cc1cc(C)c(C(=O)CC2(O)C(=O)N(C)c3ccccc32)c(C)c1` (stereo not shown) it is 4.41%; for `CC(SC1=NN2CCCC(=O)N=C2S1)c1ccccc1` (stereo not shown) it is 0.718%.
As for `CCOc1ccccc1C(=O)N1CCN(c2ncccn2)CC1`, the “% Inhibition @ 10 uM” value is on record as 3.94%.
Next, `Cc1c(-c2ccccc2)sc(N)c1C#N`: 19.1%.
Next, `CC(C)(C)c1ccc(C2CC(=O)C(/C=N/CCN3CCNCC3)=C(O)C2)cc1` (stereo not shown): -1.33%; `Cc1cc(C(=O)Nc2ccc3c(c2)OCCO3)c(C)o1`: 0.726%.
The figure for `O=C(NCCc1ccccc1)c1cc(-c2ccccc2)c(N2CCOCC2)s1` is -4.69%; for `O=C(CCc1nnc2n(Cc3ccccc3)c(=O)c3ccccc3n12)NCCCN1CCCC1=O` it is 0.981%.
As for `COc1cc(Br)c(/C=C2\SC(NC(C)=O)=NC2=O)cc1OC`, the “% Inhibition @ 10 uM” value came to 2.23%.
The figure for `CCCN1C(=O)c2cc(C(=O)NCc3cccs3)ccc2C1O` (stereo not shown) is 0.195%; for `COc1ccc(CCc2nc(-c3ccc(-n4cccc4)cc3)no2)cc1` it is -7.38%.
`CC(C)NC(=O)c1ccccc1NC(=O)CCc1ccccc1`: the “% Inhibition @ 10 uM” value is listed as -2.66%.
With `CC(=O)CC(CC(=O)O)c1ccccc1` (stereo not shown), the “% Inhibition @ 10 uM” value is recorded as -1.74%.
The figure for `Cc1ccc(CNC(=O)CSc2nc3nc(C)cc(C)n3n2)cc1` is -2.14%.
For `CCOc1ccc(C(=O)C2=C(O)C(=O)N(c3nccs3)C2c2cccc(Cl)c2)cc1` (stereo not shown), the “% Inhibition @ 10 uM” value is recorded as -3.06%.
As for `CCOc1ccc(C2Oc3c(OCC)cccc3C3CC(c4ccco4)=NN32)cc1` (stereo not shown), the “% Inhibition @ 10 uM” value is 9.35%.
Regarding `COC(=O)c1c(NC(=O)C2=CCN(S(=O)(=O)c3ccc(C)cc3)CC2)sc(C)c1C`, the “% Inhibition @ 10 uM” value is -3.94%.
`COc1cccc(CN(C(=O)/C=C/c2ccc(C)cc2)C2CCS(=O)(=O)C2)c1` (stereo not shown): the “% Inhibition @ 10 uM” value amounted to 2.02%.
Consider `COc1ccc(Cn2c(C(=O)O)c(CNCc3ccc4c(c3)OCO4)c3ccc(OC)cc32)cc1`, for which the “% Inhibition @ 10 uM” value came to 1.53%.
Next, `CCOc1ccccc1NC(=O)c1cc(OC)cc(OC)c1`: 0.795%; `O=C(c1cccc(F)c1F)N1CCOCC1`: -0.128%.
The figure for `CCOC(=O)N1CCN(C(=O)C2CCN(C(=O)c3cc(OC)cc(OC)c3)CC2)CC1` is 3.47%; for `CCOc1ccccc1NC(=O)CC(O)(C(F)(F)F)C(F)(F)F` it is -1.28%.
Regarding `COc1ccc(/N=c2\scc(-c3ccc4c(c3)OCO4)n2CCO)cc1`, the “% Inhibition @ 10 uM” value is -5.97%.
Consider `Brc1ccc(CN2CCN(c3ccccc3)CC2)o1`, for which the “% Inhibition @ 10 uM” value came to 3.01%.
Consider `CCC1CCCCN1CCCNC(=O)c1cc2cc3cc(OC)ccc3nc2s1` (stereo not shown), for which the “% Inhibition @ 10 uM” value came out at 1.22%.
Next, `CCCCC/N=C/c1sc2ccc(OCC)cc2c1O`: -4.13%; `CC(C)c1nc2cc3sc(C(C)C)nc3cc2s1`: -4.78%.
Next, `COc1cccc(OC)c1C(=O)N1CCC(C(=O)O)CC1`: -0.169%.
In the case of `COC(=O)C1=C(C)NC(=O)CC1c1ccccc1Br` (stereo not shown), the “% Inhibition @ 10 uM” value turned out to be 0.565%.
The figure for `CC(NC(=O)c1ccc(C(C)(C)C)cc1)C(=O)O` (stereo not shown) is 3.46%; for `Cc1nc2cccnc2n1-c1ccc(C(=O)NCc2ccccc2)cc1` it is 4.79%; for `Cc1ccc(OCCCCN2CCCC2)c(C)c1` it is -2.12%.
Next, `FC(F)(F)c1cccc(N2CCN(Cc3ccc(-c4ccccc4)cc3)CC2)c1`: -7.49%; `COc1ccc2c(C)c(CCC(=O)N3CCCC3)c(=O)oc2c1`: 2.54%; `Cc1nn2c3c(cnc2c1-c1ccc(Cl)cc1)C(=O)CC(c1ccco1)C3` (stereo not shown): -4.78%.
In the case of `CCN(CC)C(=O)c1sc2nc3c(cc2c1N)CN(C(C)C)CC3`, the “% Inhibition @ 10 uM” value amounted to 9.61%.
As to `Cc1cc2c(C)nc(-c3ccccc3)nc2o1`, the “% Inhibition @ 10 uM” value is given as -0.436%.
The figure for `CCCn1nc(Oc2nc(NCC)nc(NC(C)C)n2)ccc1=O` is 2.56%; for `CN1C2=C(C(=O)CCC2)C(c2ccc(O)cc2)C2=C1CCCC2=O` it is 6.58%.
`CCNC(=O)c1cc(-c2cccc(Br)c2)nc2ccccc12`: the “% Inhibition @ 10 uM” value is 4.96%.
The figure for `CC1CC(C)CN(C(=O)C(C)n2sc3ccccc3c2=O)C1` (stereo not shown) is -4.09%.
The figure for `O=C(Nc1ccccc1)c1cccc(S(=O)(=O)N2CCC(Cc3ccccc3)CC2)c1` is 1.67%.
The figure for `COc1ccc(-c2nc(-c3ccc(-n4cccc4)cc3)no2)cc1` is 4.19%; for `Cc1cc(-c2noc(COc3c(F)c(F)cc(F)c3F)n2)c2ccccc2n1` it is -2.91%.
As to `CCN(CC)C(=O)CN(c1cc(C)ccc1C)S(=O)(=O)c1ccc(C)cc1`, the “% Inhibition @ 10 uM” value was -8.67%.
Next, `CCOC(=O)C1=C(CN2CCC(C)CC2)NC(=O)NC1c1ccc(OC)cc1` (stereo not shown): -5.95%.
For the molecule `CCC1CCCCN1CCCNC(=O)Cn1cc2c(n1)-c1c(oc(C(=O)N3CCCC3)c1C)CC2` (stereo not shown), the “% Inhibition @ 10 uM” value came out at 5.43%.
The figure for `COc1ccc(/C=C(\NC(=O)c2ccco2)C(=O)N2CCCCC2)cc1` is 0.611%; for `COCc1cc(C)nc2sc(C(=O)O)c(-n3cccc3)c12` it is -1.36%; for `Cc1cc(C(=O)O)ccc1-c1ccc(/C=C2\SC(=O)N(CC(=O)N3CCCC3)C2=O)o1` it is 7.78%.
Take `Cn1nc(C(=O)NCc2ccc3c(c2)OCO3)c2c1-c1ccccc1S(=O)(=O)C2`: the “% Inhibition @ 10 uM” value is -3.8%.
Next, `CCCCNC(=O)CN(C)S(=O)(=O)c1ccc(Cl)cc1`: -0.185%; `COc1ccc(C(=O)CSC2=C(C#N)C(c3ccco3)C(C(=O)Nc3ccccc3)=C(C)N2)cc1` (stereo not shown): -3.26%.
Next, `CCN(CC)CCOCCOc1ccccc1`: 2.5%; `CC1CCN(S(=O)(=O)c2ccc3c(ccn3CC(=O)NCCc3cccs3)c2)CC1`: -2.74%.
For `CCCN(CCC)CCNC(=O)Cc1c(C(=O)O)[nH]c2ccccc12`, the “% Inhibition @ 10 uM” value is on record as -2.74%.
The figure for `CCOC(=O)N1CCN(S(=O)(=O)c2cc(OC)ccc2OC)CC1` is 1.67%; for `C#CCOc1ccc(C(c2ccc(OCC#C)cc2)(C(F)(F)F)C(F)(F)F)cc1` it is 7.77%.
The figure for `CC(=O)N1N=C(c2ccco2)CC1c1ccco1` (stereo not shown) is 3.65%; for `COc1ccc(CN2CCN(c3cccc(C(F)(F)F)c3)CC2)cc1O` it is -5.57%; for `O=C(O)CCCNC(=O)CNc1c2ccccc2nc2ccccc12` it is 15.7%.
In the case of `Cc1onc(-c2c(Cl)cccc2Cl)c1C(=O)N1CC(C)OC(C)C1` (stereo not shown), the “% Inhibition @ 10 uM” value is reported as -6.69%.
Next, `NC(=O)NC(c1ccccc1)c1ccc(Cl)cc1Cl` (stereo not shown): 3.44%; `CCO/C(O)=C1\C(C)=NC2(O)CC1C1COC2O1` (stereo not shown): 3.44%; `CN1CCN(c2c(S(=O)(=O)c3ccccc3)cnc3ccc(F)cc23)CC1`: -5.37%.
In the case of `C=CCN(Cc1nc(-c2ccc(OC)cc2)no1)S(=O)(=O)c1ccc(Br)cc1`, the “% Inhibition @ 10 uM” value is listed as -4.54%.
The figure for `Cc1sc(NC(=O)C2CCCO2)c(C(N)=O)c1C` (stereo not shown) is -0.436%; for `O=C(Cn1c(SCc2ccccc2F)nc2ccncc21)NCc1ccco1` it is 4.22%.
The figure for `CCOc1ccc(/C=C/C(=O)c2cc3cc(Cl)ccc3oc2=O)cc1OC` is 2.73%; for `CC12CN3CC(C)(CN(C1)C3c1ccco1)C2` (stereo not shown) it is -1.82%; for `CN1CCN(c2nc(-c3ccc(OC4(C(=O)NCC#N)CCCCC4)cc3)cs2)CC1` it is -4.72%.
Next, `Fc1ccccc1-n1ncc2c1ncn1nc(-c3ccncc3)nc21`: -4.64%; `COc1ccc(CN2CCN(c3ccc(F)cc3)CC2)cc1O`: -4.35%.
Turning to `COc1ccccc1CCNCc1c(C(=O)O)n(Cc2ccc(F)cc2)c2cc(C)ccc12`, the “% Inhibition @ 10 uM” value was found to be 2.56%.
For the molecule `CCCOc1cc(C)c(S(=O)(=O)n2cnc3ccccc32)cc1C`, the “% Inhibition @ 10 uM” value was -1.11%.
For `Nc1ccccc1C(=O)N1CCCCCC1`, the “% Inhibition @ 10 uM” value stood at 1.34%.
The figure for `COc1ccc(C2NC(=O)NC(C)=C2C(=O)OCCC(C)C)cc1` (stereo not shown) is -11.2%; for `CC1(C)CC(=O)C2=C(C1)NC(=O)CC2c1cccc(Oc2ccccc2)c1` (stereo not shown) it is -9.42%; for `Cc1ccc(-c2cn3cc(-c4ccc(Br)cc4)nc3n2C)cc1` it is -1.11%.
`COc1ccc(CN2CCN(Cc3ccc(Cl)cc3)CC2)cc1`: the “% Inhibition @ 10 uM” value is reported as -2.58%.
The figure for `CCOc1ccccc1C1CC(=O)Nc2c1c(=O)n(C)c(=O)n2C` (stereo not shown) is -4.16%.
Next, `O=C(CCN1CCOCC1)Nc1c(O)nc2ccc(Br)cc2c1-c1ccccc1`: -2.92%.
Next, `COc1ccc(/C(O)=C/C=N/c2ccc(C)c(C)c2)cc1OC`: -2.24%; `CC(C)C[C@@H](C(=O)NCC#N)c1cccc(-c2cccc(N3CCNCC3)c2)c1`: -4.72%.
On to `C/N=c1\c(NC(=O)CC23CC4CC(CC(C4)C2)C3)c(O)oc2ccccc12`, for which the “% Inhibition @ 10 uM” value is on record as 25.1%.
For `O=C(O)c1ccc(C(=O)c2ccc(Oc3ccc(C(=O)O)c(C(=O)O)c3)cc2)c(C(=O)O)c1`, the “% Inhibition @ 10 uM” value is 3.32%.
The figure for `CCC(CO)NS(=O)(=O)c1cc(-c2nnc(OC)c3ccccc23)ccc1C` (stereo not shown) is -0.85%; for `CCN(CC)C(=O)c1ccc(COc2ccc(Cl)c(C)c2)o1` it is 1.92%; for `CCC(C)NC(=O)CCc1c(C)nc2c3c(C)cc(C)nc3nn2c1C` (stereo not shown) it is -0.72%.
